Results reported in PMC12136788.
This is one part of the list.

T1: UNK ZnF1-3 (human, UniProt Q9C0B0 31-174)
T1 sequence: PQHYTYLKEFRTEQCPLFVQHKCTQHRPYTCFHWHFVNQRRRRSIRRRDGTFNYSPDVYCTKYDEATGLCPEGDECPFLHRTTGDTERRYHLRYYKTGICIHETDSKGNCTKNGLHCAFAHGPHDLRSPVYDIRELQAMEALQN

B1: 35834523_35834643_1342_3pUTR_ENSMUSG00000024350_ENSMUST00000025208|mouse|control|control (ssRNA)
RNA: GGGAGUUCUACAGUCCGACGAUCCCCUGACCUACUUCACAGAGGAGUUGGGUCCAAACUUUACCAUGCCUGUGACUAAGACCAACUGUUCUGCCCUGGGAGCCAGGCCUGGGGAAGGACUGGAGGGGACAAGUCUCCAAUCACCAACAGAGGAUUGAGCAUCA
B2: chr12:42180722:42180723:-_ENSMUSG00000036295_ENSMUST00000043884|mus_hu|mus_mus_mus_hu_True|88_108 (ssRNA)
RNA: GGGAGUUCUACAGUCCGACGAUCCUGUAGGAGCAGAAUCUGUGUGUCGGCAGGCAAUCUGGCUGGGAAAGUUAAAAGACCUAAAUCAUUACAAUCCACUGUAGAUGCUUCCAUAUAAAUGGAUCUGGGUGUAAACCAAGGCCUCAACAGAGGAUUGAGCAUCA
B3: chr3:133126781:133126782:-_ENSMUSG00000040943_ENSMUST00000098603|mus_hu|motif|central (ssRNA)
RNA: GGGAGUUCUACAGUCCGACGAUCUAUUUAUAACCAUCCUCAGAUCUUAUAAACCAAACAUCUCAUGAAAAUGAAAUGAAACGGGUUUUUAAAAAAGCAUAGAAAAAUGCACACAGAAGUUAUCUUAGUGUCAAACUGCAAAAGCAACAGAGGAUUGAGCAUCA
B4: chr11:50626376:50626377:-_ENSMUSG00000044807_ENSMUST00000109135|mus_mus|FALSE|FALSE (ssRNA)
RNA: GGGAGUUCUACAGUCCGACGAUCUCAGAGCUGAAGACCUCGAUUCUUAAAAGGUUAUAAAUUAAAAGUUUCUCUGAUUCUAAAAUGCAAACAGGUUCAUAGCAGGAGACUCUUGUUAACAAUGGCCUUCUACAAUACGUAAUACAACAGAGGAUUGAGCAUCA
B5: chr3:105756983:105756984:-_ENSMUSG00000000563_ENSMUST00000118209|mus_mus|motif|central (ssRNA)
RNA: GGGAGUUCUACAGUCCGACGAUCAAUAAAUUCUCCAAAAGAGGCGCCAUAUUUCUUAAUCACAUAGACUAUCAACCCGGCGGCUGAUAUGGUAGAGAAGGUCUCUGGGGUAAUCACAUAUAUUUCUUUGGAUAGAAAAUACAACAACAGAGGAUUGAGCAUCA
B6: 31371766_31374660_2016_CDS_ENSG00000196792_ENST00000355683|human|control|control (ssRNA)
RNA: GGGAGUUCUACAGUCCGACGAUCGUGUCUAUCUUCAUGAGCAGUUAUUGUAACAGGAAGUGUGGGAUGACUUACUACUCUGUUGAUAUGAUUAUUAGAUUGUAAACCAGAAUCUACCUGUGAUGAAAGUAUCACCAAUGACUGCAACAGAGGAUUGAGCAUCA
B7: chr14:15598107:15598108:+_ENSMUSG00000021733_ENSMUST00000057015|perfect_dup|motif|central (ssRNA)
RNA: GGGAGUUCUACAGUCCGACGAUCUUGCCCAGCAAACAAUGAAUAGGCAAUCCCAGUUAAUGACGCUCCAAAAAGAGACUCGGUUGCACUUAUUCUGCCUUCUGUAGCUUCUCCAAGCAGCCCUCCAAAAGUGAUUACAGGAGACAACAGAGGAUUGAGCAUCA
B8: chr21:34924512:34924513:+_ENSG00000159140_ENST00000381679|hu_hu|motif|central (ssRNA)
RNA: GGGAGUUCUACAGUCCGACGAUCAGAUGACAUCAUGGAACGUUCUGCAGCAUAGGACAUCAUCAUAGAACGUCUAGAUGCGGACAUCAGGGGUCUAGGUGCUAACCUAUAUGGCCUGGGUGCUAUUCUAUAGGACCUGGGUGCCAACAGAGGAUUGAGCAUCA
B9: chr10:12291664:12291665:+_ENSG00000151465_ENST00000378900|hu_hu|FALSE|FALSE (ssRNA)
RNA: GGGAGUUCUACAGUCCGACGAUCGUUCCAGUACGCUCAUCAGUCGUCCUCCUGCUGAUUUCUCUUCAGCUUAAGGAAGUCUAUUAGCUUGUGAGCGUCCUCCCCAGUAGAGAGGUCUACAAAGUCCUUGGGUAGCCGGUAACUCAACAGAGGAUUGAGCAUCA
B10: chr10:121586544:121586545:+_ENSG00000198825_ENST00000369080|hu_hu|motif|central (ssRNA)
RNA: GGGAGUUCUACAGUCCGACGAUCCCGACUGCCCAAUCGAGGCGCUGAGGCAAUAAUACCACAACUAGGAAGAACGUAAUCGGUUGGCCCUACACUCUCUAAUGAGUUAGCUAGCUGCCUGUCUUCAUCAGACUUAGAAUUUGUCAACAGAGGAUUGAGCAUCA
B11: chr1:168165803:168165804:+_ENSG00000143155_ENST00000367833|hu_hu|motif|central (ssRNA)
RNA: GGGAGUUCUACAGUCCGACGAUCAUUCAUUCUGAUAAGCACCCCAUCAAUUCUCAAGAAAAACCGCAACAGCAGGAAAAAGCGGGAAGGCAUUACUCUAAUCUUCACACUCAGGCUUGAAACUCCAUGAUCAUGAAGUUCAUCCAACAGAGGAUUGAGCAUCA
B12: chr7:141438946:141438947:+_ENSG00000106028_ENST00000265304|hu_mus|hu_hu_hu_mus_True|78_88 (ssRNA)
RNA: GGGAGUUCUACAGUCCGACGAUCGACGAAAUACCUGUAACACAGGUGAAACAUGGCUUCUAUUUUCUUUUCUUACAACCUAAUCUUUAGGCUUUUCCUAAAGGAAAGAAAGAAAAGAGAAAAAUGAUAAAUCAAGAAACUACACAACAGAGGAUUGAGCAUCA
B13: chr19:21355511:21355512:+_ENSMUSG00000024750_ENSMUST00000025659|mus_mus|FALSE|FALSE (ssRNA)
RNA: GGGAGUUCUACAGUCCGACGAUCUUUGUAGCUUUCUUCCUGCUUCCAAAAGUCAUGUCGAAAUUAAGGUGAAGUUUGACUAUGGUAGUAGACUGCCAGUCCUUUUCUGGUGUACCAUUUUUUUUUUUUUAAGUACAGGCACAUCAACAGAGGAUUGAGCAUCA
B14: chr2:198351390:198351391:-_ENSG00000144381_ENST00000345042|hu_hu|hu_hu_hu_mus_False|1_78 (ssRNA)
RNA: GGGAGUUCUACAGUCCGACGAUCUCAUUCCCACCCUCCACAGAAAGGCUGCUUCUGUUCUCAUCUGUGGUGACACAGCGCUACAGUCCUGAUGCUCACAGAACAGUAGAGAUGCCUCAGUGAUUUAAGUUGAAAGCAGCAGUACAACAGAGGAUUGAGCAUCA

Target: T1, UNK ZnF1-3
Assay: nsRBNS (natural sequence RNA bind-n-seq); RBNS binding buffer (assumed for nsRBNS): 25 mM Tris pH 7.5, 150 mM KCl, 3 mM MgCl2, 0.01% Triton X-100, 500 ug/ml BSA, 20 U/ml SUPERase-In, 4 C; UNK is unkempt and MSI1 is Musashi-1; names of the RNAs are library labels; protein concentration not given here; high values mean tight binding

Compared with B1, B2 is lower in binding signal: 2.03 enrichment R for the first, 1.08 enrichment R for the second.

First: B3
Second: B4
The binding signal of the first is lower: 0.873 enrichment R for the first, 1.71 enrichment R for the second.

First: B5
Second: B6
The binding signal of the first is higher: 1.38 enrichment R for the first, 1.33 enrichment R for the second.

Compared with B7, B8 is lower in binding signal: 1.31 enrichment R for the first, 0.936 enrichment R for the second.

Going from B9 to B10, the binding signal rises from 0.299 enrichment R to 0.982 enrichment R.

Going from B11 to B12, the binding signal falls from 1.84 enrichment R to 0.333 enrichment R.

Going from B13 to B14, the binding signal rises from 0.531 enrichment R to 1.27 enrichment R.
